Measurements as given in ChEMBL document CHEMBL1139349, “Fast three dimensional pharmacophore virtual screening of new potent non-steroid aromatase inhibitors” (J Med Chem, 2009).

biological target: T1, Aromatase (Homo sapiens, UniProt P11511); assay: not given
T1 sequence (P11511 whole entry): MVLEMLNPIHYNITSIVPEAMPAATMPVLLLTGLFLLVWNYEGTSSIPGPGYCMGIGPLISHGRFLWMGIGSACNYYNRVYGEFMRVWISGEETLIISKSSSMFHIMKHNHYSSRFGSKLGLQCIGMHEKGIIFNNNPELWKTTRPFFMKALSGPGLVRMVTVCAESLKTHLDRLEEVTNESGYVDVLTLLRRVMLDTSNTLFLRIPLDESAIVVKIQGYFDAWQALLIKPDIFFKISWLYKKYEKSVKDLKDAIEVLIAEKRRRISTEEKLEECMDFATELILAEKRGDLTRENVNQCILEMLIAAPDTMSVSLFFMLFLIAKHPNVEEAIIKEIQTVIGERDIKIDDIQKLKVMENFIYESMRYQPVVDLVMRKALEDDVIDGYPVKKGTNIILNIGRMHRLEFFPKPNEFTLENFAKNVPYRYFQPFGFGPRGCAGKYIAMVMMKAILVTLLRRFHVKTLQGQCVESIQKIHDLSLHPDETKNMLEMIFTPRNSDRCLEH

Row | Structure (SMILES) | IC50
1 | O=[N+]([O-])c1cccc(Cc2nncc3ccccc23)c1 | 37.6 µM
2 | COc1ccc2c(Cc3cccc([N+](=O)[O-])c3)cncc2c1O | 1.4 µM
3 | COc1ccc2c(c1)CCC(CC1C=NC=N1)=C2C (stereo unspecified) | 17 µM
4 | O=[N+]([O-])c1ccc2c(c1)nc(-c1ccccn1)n2CCc1ccncc1 | 2.1 µM
5 | c1ccc(-c2cc(-c3cccnc3)nc(-c3cccnc3)c2)cc1 | 46.7 µM
6 | COc1ccc2c(Cc3ccc(O)cc3)cncc2c1O | 29.8 µM
7 | COc1ccc(-c2cnnn2Cc2ccco2)cc1 | 3.1 µM
8 | COc1ccc(-c2cc3c(=O)cc(O)oc3cc2SCc2ccncc2)cc1 | 0.22 µM
9 | COc1ccc(/C(=N/Nc2cnnc(Cl)c2Cl)c2ccccc2)cc1 | 5.6 µM

biological target: T1, Aromatase; assay: in vitro

Row | Structure (SMILES) | inhibition at 36 µM
10 | O=c1ccc2ccc(Cn3cncn3)cc2o1 | 60%
11 | c1ccc(C2(n3ccnn3)c3ccccc3-c3ccccc32)cc1 | 30%
